Data as given in the supplement of paper PMC3334620.
Over roughly 33,000 sequences, “E-score (-0.5 to 0.5)” has its median near -0.036; the highest 2% begin near 0.37. This is one part of the list.

These sequences were tested against T1, Yer064c (UniProt P40041) (assay: PBM E-score (8-mer binding enrichment) (E-score (-0.5 to 0.5)); higher = stronger / more preferred TF binding; most listed sequences are background and not binding sites). Conditions: protein concentration: 200 nM; construct: GST-full length.
T1 sequence: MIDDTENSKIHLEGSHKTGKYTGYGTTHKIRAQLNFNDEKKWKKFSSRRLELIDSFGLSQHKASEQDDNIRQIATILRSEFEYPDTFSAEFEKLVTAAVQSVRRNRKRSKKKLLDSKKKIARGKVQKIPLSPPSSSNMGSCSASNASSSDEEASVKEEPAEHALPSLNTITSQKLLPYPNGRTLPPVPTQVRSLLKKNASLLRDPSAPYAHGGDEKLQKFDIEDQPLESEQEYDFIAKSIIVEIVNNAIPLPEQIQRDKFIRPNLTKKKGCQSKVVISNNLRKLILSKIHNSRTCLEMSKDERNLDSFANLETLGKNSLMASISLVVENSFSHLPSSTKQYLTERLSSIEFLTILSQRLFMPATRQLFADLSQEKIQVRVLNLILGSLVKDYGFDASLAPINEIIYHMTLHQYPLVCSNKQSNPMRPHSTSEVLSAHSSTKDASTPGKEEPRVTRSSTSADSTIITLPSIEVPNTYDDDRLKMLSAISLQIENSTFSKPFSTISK
Outline: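 The E-score, a modified Wilcoxon-Mann-Whitney statistic, was computed by the Universal PBM Analysis Suite for every ungapped eight-base word pooled with its reverse complement. Scans behind it were normalised with masliner after bound GST-tagged yeast transcription factors were detected with fluorescent anti-GST. The proteins, at about 100-200 nM, had been applied to universal all-10-mer Agilent arrays made double-stranded by primer extension.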

| Sequence | PBM E-score |
| --- | --- |
| GGAACAGA | -0.0798 |
| CTGCCTAA | -0.0491 |
| GGCGATGA | -0.0497 |
| CGGCCAGC | -0.256 |
| AGAGCTCT | -0.292 |
| AGCCCGAG | -0.00679 |
| CCAAGCCG | -0.282 |
| ACCAGCAC | -0.237 |
| ATCGTCTA | 0.00108 |
| CGACGTGC | -0.248 |
| CGAACTTA | -0.157 |
| CCTCGAAA | -0.00031 |
| AAGGAGTA | 0.0121 |
| AATTGTCG | -0.178 |
| TATGGCCA | -0.278 |
| CTTAACTC | 0.164 |
| AGTCGACA | 0.27 |
| AAGGTATA | 0.0676 |
| ATCCGCGA | 0.0854 |
| TAAGCGCA | 0.0539 |
| ACCAATGG | -0.129 |
| CCCCAGAA | -0.176 |

| Sequence | PBM E-score |
| --- | --- |
| CACCCACC | 0.122 |
| ACAGTCAC | 0.405 |
| GGCATACA | -0.226 |
| CCCAGAGC | -0.123 |
| TAAGTTGA | 0.222 |
| CAGGCGTA | -0.0189 |
| ACTTCCCT | -0.0245 |
| GAGTGCCC | -0.234 |
| GGTTCACA | 0.00505 |
| CTATCGAG | 0.0679 |
| GGTCACCA | 0.036 |
| CCGTACTC | 0.0902 |
| GCCGCCTA | -0.157 |
| CTGTGTAC | 0.103 |
| ACCAACAT | -0.00157 |
| AAGCTAAT | 0.156 |
| CGTGGGGC | -0.258 |
| AGTTATCG | 0.0867 |
| CCAGCGAA | -0.268 |
| CAGATCCA | -0.13 |
| CAGGTGAA | -0.0165 |
| CCAAAACC | -0.0619 |

| Sequence | PBM E-score |
| --- | --- |
| AGCCAGCC | 0.0353 |
| GTCAACAA | 0.105 |
| ACTGTCTG | 0.0914 |
| AAATAGTA | -0.0273 |
| CGGGGGTA | -0.271 |
| AGTGTGCC | -0.235 |
| CCCGAAAA | -0.148 |
| CACGCTTA | 0.0101 |
| AGGCTAAT | 0.109 |
| AATGCTGT | 0.018 |
| GCCTGCCA | -0.285 |
| CATGTACC | -0.137 |
| AAACCAAA | -0.00153 |
| ACTGTAAA | 0.102 |
| TGACCGAA | -0.0108 |
| CATAAGAC | 0.159 |
| ATGGGTAG | 0.129 |
| ACCCGGAG | 0.101 |
| GAACTTGC | -0.215 |
| CTTCGATA | -0.049 |
| GAGGATTA | 0.109 |
| GCCGACAC | -0.146 |

| Sequence | PBM E-score |
| --- | --- |
| GGCAGTAA | 0.0188 |
| GCAGCACA | -0.0653 |
| ATCGACTC | 0.304 |
| AGTCATCA | 0.485 |
| AGCCCAAC | -0.21 |
| CGTCGCAG | -0.031 |
| ACGTAACC | -0.0806 |
| GGATGGTA | -0.0582 |
| GGACATTA | -0.089 |
| CCCGGTGA | 0.134 |
| CAATGATG | -0.0856 |
| ACTGACCG | -0.0617 |
| CATCTTGA | 0.15 |
| CGTGACAA | -0.253 |
| CTTCCCGA | -0.0646 |
| GGAGATAC | -0.119 |
| ATCTTGAG | 0.0721 |
| CAGGGCGA | -0.118 |
| GGGACGAA | -0.244 |
| AACGCATT | 0.0327 |
